Measurements published in PubChem BioAssay AID1346428 (National Center for Advancing Translational Sciences (NCATS), 2018).
Among all 48,000 compounds or so, about 1,200 (2.5%) were called active. Not shown: some 2% with an inconclusive outcome.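 The calls were made as follows: active = activation of at least 60% and not above a set upper limit (about 1 call in 100 departs from these limits); inconclusive = activation of 40% to 60%, or above that upper limit; inactive = activation under 40%.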 The list shows a part of the results. Where a SMILES comes first, the peptide text is derived from it.

Biological target: Probable G-protein coupled receptor 32 (Homo sapiens) (UniProt O75388)
Chain of UniProt O75388 (O75388 whole entry, looked up): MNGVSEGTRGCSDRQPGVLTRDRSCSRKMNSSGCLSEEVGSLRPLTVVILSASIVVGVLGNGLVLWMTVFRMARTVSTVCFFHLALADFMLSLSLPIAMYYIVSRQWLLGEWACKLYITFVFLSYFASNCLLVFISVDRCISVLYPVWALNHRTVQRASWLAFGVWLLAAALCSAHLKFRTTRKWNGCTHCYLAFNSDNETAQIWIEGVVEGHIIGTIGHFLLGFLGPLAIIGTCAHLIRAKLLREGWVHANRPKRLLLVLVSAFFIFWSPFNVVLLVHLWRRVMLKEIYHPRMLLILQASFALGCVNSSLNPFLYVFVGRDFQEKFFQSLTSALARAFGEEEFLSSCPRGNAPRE
Test: qHTS for Agonists of Human Resolvin D1 Receptor DRV1; also: 0% is about no effect
Conditions: CHO-K1 GPR32 beta-arrestin PathHunter luminescence, 90 min; at 76.9 µM; stronger effect = higher value; zero percent set by DMSO-only wells
Outline: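 Step 1: seed CHO-K1 GPR32 beta-arrestin cells, 2,500/well, overnight at 37 °C. Step 2: add compounds, 90 min at 37 °C. Step 3: detection reagent, 1 h ambient, then luminescence.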

| SMILES | activation |
| --- | --- |
| Cc1cccc(NC(=O)CSc2nc3ccccc3c3nc(CCc4c(C)n[nH]c4C)nn23)c1 | inactive: 11.2% |
| COc1ccccc1CCNC(=O)C(=O)NCC(c1ccco1)S(=O)(=O)c1ccccc1 (centres undefined) | inactive: -15.2% |
| COc1ccc(Nc2nc3ccccc3nc2NS(=O)(=O)c2ccc(Cl)cc2)cc1OC | active: 118% |
| CC(C)c1cnc2c(c1SCC(=O)O)c(=O)n(C)c(=O)n2C | inactive: 5.68% |
| NS(=O)(=O)c1cc(C(=O)NN2C[C@H]3[C@H]4CCC(C4)[C@H]3C2)ccc1Cl | inactive: 2.52% |
| COc1ccccc1-c1cc(C(=O)NCCc2ccccc2)no1 | inactive: -10.6% |
| CC(=O)Nc1ccc(NC(=O)c2cnn(-c3ccccc3)c2C2CCN(C(=O)OC(C)(C)C)CC2)cc1 | inactive: 2.15% |
| O=S(=O)(Nc1cccc(F)c1)c1ccc2[nH]c3c(c2c1)CCCCC3 | active: 61.6% |
| CCC(C(=O)NCc1cccc(Br)c1)n1nc(C)c2c(C)n(-c3ccccc3)nc2c1=O (centres undefined) | inactive: -9.81% |
| COc1ccc2c(c1)c1c(c(=O)n(-c3cccc(C)c3)c(=O)n1CC(=O)N1CCCC1)n2C | inactive: -1.72% |
| Cc1cc(C)c2c(=O)cc(C(=O)Nc3ccc(S(=O)(=O)Nc4onc(C)c4C)cc3)oc2c1 | inactive: -10.2% |
| CC(C)(C)OC(=O)N1CCC(c2c(C(=O)NCc3ccccn3)cnn2-c2ccc(F)cc2)CC1 | inactive: 2.66% |
| Cc1ccc2c(=O)cc(C(=O)Nc3c(C(=O)c4ccccc4)oc4ccccc34)oc2c1C | inactive: 11.1% |
| COC(=O)[C@H](Cc1ccccc1)NC(=O)[C@@H](N)CC(=O)O (H-Asp-Phe-OMe) | inactive: 23.1% |
| CCC(C)NC(=O)c1ccc2c(c1)N=C(C)c1cc(C)ccc1S2 (centres undefined) | inactive: -1.56% |
| COc1ccc(-c2cc(-c3ccccc3)nc3c2COc2ccccc2-3)cc1 | inactive: -3.57% |
| CCCn1cc(S(=O)(=O)c2cc(C)ccc2C)c(=O)c2cc(F)c(N3CCCCCC3)cc21 | inactive: -31.4% |
| CC(C)CC(=O)Nc1nnc2n1CCS2 | inactive: 23.4% |
| CCN1C(=O)c2ccccc2Sc2ccc(NC(=O)Cc3ccc(OC)cc3)cc21 | inactive: -27.2% |
| CCc1ccccc1N(c1nc(-c2ccc(OC)c(OC)c2)no1)c1nc(-c2ccc(OC)c(OC)c2)no1 | inactive: -2.58% |
| COc1cccc(NC(=O)C(=O)NCCc2csc3nc(-c4ccccc4C)nn23)c1 | inactive: 1.17% |
| COc1ccc(-n2nnc(C(=O)Nc3ccccc3F)c2N)cc1 | inactive: 12.4% |
| CC(=O)NCc1nc2cccnc2n1Cc1ccccc1 | inactive: -9.77% |
| CC(=O)c1cc(-c2ccccc2)n(CCC(=O)NCCc2ccccc2)c1C | inactive: -18.5% |
| COC(=O)c1c(NC(=O)c2nc(SC)ncc2Cl)sc2c1CCCC2 | inactive: 1.51% |
| Cc1oc(-c2cccc(Cl)c2)nc1CSc1nnc(C)n2c1cc1occc12 | inactive: -1.1% |
| Cc1cccc(CCNC(=O)c2ccc3c(c2)nc2n3CCCCC2)c1 | inactive: -10.7% |

| SMILES | activation |
| --- | --- |
| Cc1nc2c(-c3ccc(F)cc3)c(C)nn2c(C)c1CCC(=O)N1CCN(c2ccc(F)cc2)CC1 | inactive: 4.07% |
| COc1ccc(Cl)cc1N(C)C(=O)Cc1noc2ccc(C)cc12 | inactive: -12.5% |
| CCc1cccc(C)c1NC(=O)Cn1c(=O)n(-c2cccc(C)c2)c(=O)c2c1c1cc(C)ccc1n2C | inactive: -1.08% |
| COc1ccccc1N1CCN(C(=O)Cn2cnc3sc(C)c(S(=O)(=O)N4CCC(C)CC4)c3c2=O)CC1 | inactive: 2.56% |
| C/C(=C1\CCOC(=O)S1)N(C=O)Cc1cnc(C)nc1N | inactive: 0.97% |
| Cc1cccc(Cc2c(C)nc3nc(SCC(=O)NCc4ccc(F)cc4)nn3c2C)c1 | inactive: -4.46% |
| COc1ccc(NC(=O)CCNS(=O)(=O)c2ccc3c(c2)CCN3C(=O)C2CC2)cc1Cl | inactive: 4.09% |
| COc1ccc(-c2nnc(SCC(=O)Nc3cccc(Cl)c3C)nc2-c2ccc(OC)cc2)cc1 | inactive: -46.5% |
| Cc1cc(C)n(-c2nc(C)c(C)c(=O)n2CC(=O)Nc2ccc(Cl)c(Cl)c2)n1 | inactive: -10.4% |
| CC(=O)Nc1ccc(NC(=O)c2c(C)nn(-c3ccccc3)c2-n2cccc2)cc1 | inactive: 4.99% |
| Cc1ccc(CNc2ncnc3c2cnn3-c2ccc(C)cc2C)cc1 | active: 61.2% |
| Cc1ccc(CNC(=O)c2ccc3c(c2)nc2n3CCCC2)cc1 | inactive: -13.4% |
| NC1CCN(O)C1=O (centres undefined) | inactive: 8.92% |
| COc1ccc(-c2cc(OC(=O)c3cccc(C)c3)c3c(C)oc(C)c3c(=O)c2)cc1 | inactive: -12.7% |
| Cc1cc(C)c(NC(=O)Cn2nnc(C(=O)Nc3ccc(F)cc3F)c2N)c(C)c1 | inactive: 1.02% |
| COc1cccc(NC(=O)c2nnn(Cc3ccc(OC)c(Br)c3)c2N)c1 | inactive: 5.26% |
| C1CCC(N=C(NC23CC4CC(CC(C4)C2)C3)N2CCOCC2)CC1 | inactive: -3.67% |
| CCc1nn2c(=O)cc(COC(=O)C3CCCCC3)nc2s1 | inactive: 5.49% |
| CCOC(=O)c1cc(-c2ccccc2)n(CCCC(=O)Nc2ccc(C)cc2Cl)c1C | inactive: -16.5% |
| CCn1cc(C(=O)NCc2ccccc2OC)c(=O)c2cc(S(=O)(=O)N3CCCCCC3)ccc21 | inactive: -18.2% |
| CCc1ccc(NC(=O)C2CCCN(S(=O)(=O)c3cccc4nonc34)C2)cc1 (centres undefined) | active: 89% |
| CC(=O)N1CCN(c2ccc(O)cc2)CC1 | inactive: 42% |
| COc1ccc(CNC(=O)C2CCN(S(=O)(=O)c3ccc4nc5c(c(C(=O)O)c4c3)CC(C)CC5)CC2)cc1 (centres undefined) | inactive: -15.6% |
| Cc1cc(C)c(NS(=O)(=O)c2cc(-c3cnc(C4CC4)o3)ccc2C)c(C)c1 | inactive: -11% |
| Cc1ccsc1CCN1C(=O)N(c2ccc(F)cc2)C(=O)C1CC(=O)Nc1ccccc1 (centres undefined) | inactive: -4.54% |
| COc1cccc(NS(=O)(=O)c2cc3c4c(c2)C(C)C(=O)N4CCC3)c1 (centres undefined) | inactive: 9.34% |
| CCc1ccc(NC(=O)c2c(C(=O)Nc3ccccc3)sc3nc(C)cc(=O)n23)cc1 | inactive: 11.7% |
